Variants at the floor of the assay are shown more often than the library holds them.
B1: tRNA (parent)
chain: CUCUCGGUAGCCAAGUUGGUUUAAGGCGCAAGACUUUAAUUUAUCACUACGAAAUCUUGAGAUCGGGCGUUCGACUCGCCCCCGGGAGAUUUUUUCCUCGAGCAA

Variants of: B1
Test: nonsense suppression (GFP-seq) (ratio to wild type); higher = more function; SUP4oc tRNA, yeast GFP reporter sort-seq
Procedure, shortened: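 Yeast were grown in raffinose/galactose medium with 80 mg/L adenine, each strain bearing a genome-integrated ochre-suppressor tRNA variant from a ~3% random-mutation library, a galactose-driven GFP ochre reporter, and RFP. After sorting into GFP/RFP bins, every bin was sequenced on an Illumina platform at phred ≥30. The GFPSEQ value, a measure of nonsense suppression, is the weighted bin median GFP/RFP relative to the unmutated parent tRNA, using each variant's estimated cell share per bin as the weight. Only variants with ≥100 reads and ≥30 cells were included.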

Nonsense suppression, ≤ 0.026:
CUCUCGGUAGCCAAGUUGGUUUAAGGCGCAAGAAUUUAAUUUAUCACUACGAAGUCUUGAGAUCGGGCGUUCGACUCGCCCCCGGGAGAUUUUUUCCUCGAGCAA
CUCUCGGUAGCCAAGUUGGUUUAAGGCGCAAGAAUUUAAUUUAUCACUACGAAUUCUUGAGAUCGGGCGUACGAAUCGCCCCCGGGAGAUUUUUUCCUCGAGCAA
CUCUCGGUAGCCAAGUUGGUUUAAGGCGCAAGAAUUUAAUUUAUCACUACGAAAUCUUGGGAUCGGGCGUUCGAGUCGCACCCGGGAGAUUUUUUCCUCGAGCAA
CUCUCGGUAGCCAAGUUGGUUUAAGGCGCAAGAAUUUAAUUUAUCACUACGAAAUCUUGAGAUCGGGCGUUCGACUCGCCCCCGGGUGAUUUUUUCCUCGAGCAA
CUCUCGGUAGCCAAGUUGGUUUAAGGCGCAAGAAUUUAAUUUAUCACUACGAAAUGUUGAGAUCGGGGGUUCGACUCGCCCCCGGGAGAUUUUUUCCUCGAGCAA
CUCUCGGUAGCCAAGUUGGUUUAAGGCGCAAGAAUUUAAUUUAUCACUACGAAAUCUUGAGAUGGGGCGUUCGACUCGCCCCCGGGAGAUUUUUUCCUCGAGCAA
CUCUCGGUAGCCAAGUUGGUUUAAGGCGCAAGAAUUUAAUUUAUCACUACGAAAUCUUGAGAUGGGGCGUUCGACUCGCCCCCGCGAGAUUUUUUCCUCGAGCAA
CUCUCGGUAGCCAAGUUGGUUUAAGGCGCAAGAAUUUAAUUUAUCACUACGAAAUCUUGAGAUCGGGCGUUCGAGUCGCCCCCGGGAGAUUUUUUCCUCGAGCAA
CUCUCGGUAGCCAAGUUGGUUUAAGGCGCAAGAAUUUAAUUUAUCACUACGAAAUCUUGAGAUCGGGCGUUCGACUCGACCCCGGGAGAUUUUUUCCUCGAGCAA
CUCUCGGUAGCCAAGUUGGUUUAAGGCGCAAGAAUUUAAUUUAUCACUACGAAAUCUUGAGAUCGGGCGUUCGACUCGGCCCCGGGAAAUUUUUUCCUCGAGCAA
CUCUCGGUAGCCAAGUUGGUUUAAGGCGCAAGAAUUUAAUUUAUCACUACGAAAUCUUGAGAUCGGGCGUUCGACUCGCCCCGGGGAGAUUUUUUCCUCGAGCAA
CUCUCGGUAGCCAAGUUGGUUUAAGGCGCAAGAAUUUAAUUUAUCACUACGAAAUCUUCAGAUCGGGCGUUCGACUCGCCCCCGGGAGAUUUUUUCCUCGAGCAA
CUCUCGGUAGCCAAGUUGGUUUAAGGCGCAAGAAUUUAAUUUAUCACUACGAAAUCUUCAGAUCGGGCGUUCGACUCGCCCCCGGCAGAUUUUUUCCUCGAGCAA
CUCUCGGUAGCCAAGUUGGUUUAAGGCGCAAGAAUUUAAUUUAUCACUACGAAAUCUUGACAUCGGGCGUUCGACUCGCCCCCGGGAGAUUUUUUCCUCGAGCAA
CUCUCGGUAGCCAAGUUGGUUUAAGGCGCAAGAAUUUAAUUUAUCACUACGAAAUCUUGAGAUCGGGCCCUCGACCCGCCCCCGGGAGAUUUUUUCCUCGAGCAA
CUCUCGGUAGCCAAGUUGGUUUAAGGCGCAAGAAUUUAAUUUAUCACUACGAAAUCUUGAGAUCGGGCGUUCAACUCGUCCCCGGGAGAUUUUUUCCUCGAGCAA
CUCUCGGUAGCCAAGUUGGUUUAAGGCGCAAGAAUUUAAUUUAUCACUACGAAAUCUUGAGAUCGGGCGUUCUACUCGCCCCCGGGAGAUUUUUUCCUCGAGCAA
CUCUCGGUAGCCAAGUUGGUUUAAGGCGCAAGAAUUUAAUUUAUCACUACGAAAUCUUGAGAUCGGGCGUUCGACUCGCCCCCUGGAGAUUUUUUCCUCGAGCAA
CUCUCGGUAGCCAAGUUGGUUUAAGGCGCAAGAAUUUAAUUUAUCACUACGAAAUCUUGAGAUCGGGCGUUCGACUCGCCCCCGGAAGAUUUUUUCCUCGAGCAA
CUCUCGGUAGCCAAGUUGGUUUAAGGCGCAAGAACUUAAUUUAUCACUACGAAAUCUUGAGAUCGGGCCUUCGACUCGCCCCCGGGAGAUUUUUUCCUCGAGCAA
CUCUCGGUAGCCAAGUUGGUUUAAGGCGCAAGAAUUUAAUUUAUCACUACGAAAACUUGACAUCGGGCGUUCGACUCGCCCCCGGGAGAUUUUUUCCUCGAGCAA
CUCUCGGUAGCCAAGUUGGUUUAAGGCGCAAGAAUUUAAUUUAUCACUACGAAACCUUGAGAUCGGGCGUUCGACUCGCCCCCGGGAGAUUUUUUCCUCGAGCAA
CUCUCGGUAGCCAAGUUGGUUUAAGGCGCAAGAAUUUAAUUUAUCACUACGAAACCUUGAGAUCGGGCGUUCGACUCGCCCCCGGGAGCUUUUUUCCUCGAGCAA
CUCUCGGUAGCCAAGUUGGUUUAAGGCGCAAGAAUUUAAUUUAUCACUACGAAACCUUGAGAUCGGGCGUUCGACACGCCCCCGGGAGAUUUUUUCCUCGAGCAA
CUCUCGGUAGCCAAGUUGGUUUAAGGCGCAAGAAUUUAAUUUAUCACUACGAAAGCUUGAGUUCGGGCGUUCGACUCGCCCCCGGGAGAUUUUUUCCUCGAGCAA
CUCUCGGUAGCCAAGUUGGUUUAAGGCGCAAGAAUUUAAUUUAUCACUACGAAAUCCUGAGAUCGGGCGUUCGACUCGCCCCCGGAAGAUUUUUUCCUCGAGCAA
CUCUCGGUAGCCAAGUUGGUUUAAGGCGCAAGAAUUUAAUUUAUCACUACGAAAUCGUGAGUUCGGGCGUUCGACUCGCCCCCGGGAGAUUUUUUCCUCGAGCAA
CUCUCGGUAGCCAAGUUGGUUUAAGGCGCAAGAAUUUAAUUUAUCACUACGAAAUCUGGAGAUCGGGCGUUCGACUCGCCCCCGCGAGAUUUUUUCCUCGAGCAA
CUCUCGGUAGCCAAGUUGGUUUAAGGCGCAAGAAUUUAAUUUAUCACUACGAAAUCUGGAGAUCGGGCGUUCGACUCGCCCCCGGAAGAUUUUUUCCUCGAGCAA
CUCUCGGUAGCCAAGUUGGUUUAAGGCGCAAGAAUUUAAUUUAUCACUACGAAAUCUUGAGAUCGGGCGUUCGACGCGCCCCCGGGAGAUUUUUUCCUCGAGCAA
CUCUCGGUAGCCAAGUUGGUUUAAGGCGCAAGAGUUUAAUUUAUCACUACGAAAUCUUGUGAUCGGGCGUUCGACUCGCCCCCGGGAGCUUUUUUCCUCGAGCAA
CUCUCGGUAGCCAAGUUGGUUUAAGGCGCAAGAGUUUAAUUUAUCACUACGAAAUCUUGAGCUCGGGCGUUCGACUCGCCCCCGGGAGAUUUUUUCCUCGAGCAA
CUCUCGGUAGCCAAGUUGGUUUAAGGCGCAAGAGUUUAAUUUAUCACUACGAAAUCUUGAGAUCGGGCGUUCGACUCGCCCCCGGGGGAUUUUUUCCUCGAGCAA
CUCUCGGUAGCCAAGUUGGUUUAAGGCGCAAGAGUUUAAUUUAUCACUACGAAAUGUUGAGAUCGGGCGUUCGACUCGCCCCCGGGAGAUUUUUUCCUCGAGCAA
CUCUCGGUAGCCAAGUUGGUUUAAGGCGCAAGAGUUUAAUUUAUCACUACGAAAUGUUGAGAUCGGGCGUUCGACUCGCCCCCGGGACAUUUUUUCCUCGAGCAA
CUCUCGGUAGCCAAGUUGGUUUAAGGCGCAAGAGUUUAAUUUAUCACUACGAAAUCUUGAGAUAGGGCGUUCGACUCGCCCCCGGGAGAUUUUUUCCUCGAGCAA
CUCUCGGUAGCCAAGUUGGUUUAAGGCGCAAGAGUUUAAUUUAUCACUACGAAAUCUUGAGAUCGGGGGUUCGACUUGCCCCCGGGAGAUUUUUUCCUCGAGCAA
CUCUCGGUAGCCAAGUUGGUUUAAGGCGCAAGAGUUUAAUUUAUCACUACGAAAUCUUGAGAUCGGGCGUUUGACUCGGCCCCGGGAGAUUUUUUCCUCGAGCAA
CUCUCGGUAGCCAAGUUGGUUUAAGGCGCAAGAGUUUAAUUUAUCACUACGAAAUCUUGAGAUCGGGCGUUCGACUCGCACCCGGGAGGUUUUUUCCUCGAGCAA
CUCUCGGUAGCCAAGUUGGUUUAAGGCGCAAGAGUUUAAUUUAUCACUACGAAAUCUUGAGAUCGGGCGUUCGACUCGCGCCCGGGAGAUUUUUUCCUCGAGCAA
CUCUCGGUAGCCAAGUUGGUUUAAGGCGCAAGAGUUUAAUUUAUCACUACGAAAUCUUGAGAUCGGGCGUUCGACUCGCCGCCGGGAGAUUUUUUCCUCGAGCAA
CUCUCGGUAGCCAAGUUGGUUUAAGGCGCAAGAGUUUAAUUUAUCACUACGAAAUCUUGAGAUCGGGCGUUCGACUCGCCUCCGGGAGAUUUUUUCCUCGAGCAA
CUCUCGGUAGCCAAGUUGGUUUAAGGCGCAAGAGUUUAAUUUAUCACUACGAAAUCUUUAGAUCGGGCGUUCGACUCGCCCCCGGGAGAUUUUUUCCUCGAGCAA
CUCUCGGUAGCCAAGUUGGUUUAAGGCGCAAGAGUUUAAUUUAUCACUACGAAAUCUUUAGAUCGGGCGUUCGACUCGCCCCCGGGAUAUUUUUUCCUCGAGCAA
CUCUCGGUAGCCAAGUUGGUUUAAGGCGCAAGAGUUUAAUUUAUCACUACGAAAUCUUGAGAUCCGGCGUUCGACUCGCCCCGGGGAGAUUUUUUCCUCGAGCAA
CUCUCGGUAGCCAAGUUGGUUUAAGGCGCAAGAGUUUAAUUUAUCACUACGAAAUCUUGAGAUCGGACGUUCGACUCGCCCCCGGGAUAUUUUUUCCUCGAGCAA
CUCUCGGUAGCCAAGUUGGUUUAAGGCGCAAGAGUUUAAUUUAUCACUACGAAAUCUUGAGAUCGGCCGUUCGACUCGCCCCCGGGAGAUUUUUUCCUCGAGCAA
CUCUCGGUAGCCAAGUUGGUUUAAGGCGCAAGAGUUUAAUUUAUCACUACGAAAUCUUGAGAUCGGGCGUUCGACUCCCCCCCGGGAGAUUUUUUCCUCGAGCAA
CUCUCGGUAGCCAAGUUGGUUUAAGGCGCAAGAGUUUAAUUUAUCACUACGAAAUCUUGAGAUCGGGCGUUCGACUCGCCCCCUGGAUAUUUUUUCCUCGAGCAA
CUCUCGGUAGCCAAGUUGGUUUAAGGCGCAAGAGUUUAAUUUAUCACUACGAAAUCUUGAGAUCGGGCGUUCGACUCGCCCCCGGAAGAUUUUUUCCUCGAGCAA
CUCUCGGUAGCCAAGUUGGUUUAAGGCGCAAGAGUUUAAUUUAUCACUACGAAAUCUUGAGAUCGGGCGUUCGACUCGCCCCCGGUAGAUUUUUUCCUCGAGCAA
CUCUCGGUAGCCAAGUUGGUUUAAGGCGCAAGAGUUUAAUUUAUCACUACGAAAUCUUGAGAUCGGGCGUUCGACUCGCCCCCGGGACAUUUUUUCCUCGAGCAA
CUCUCGGUAGCCAAGUUGGUUUAAGGCGCAAGAGGUUAAUUUAUCACUACGAAAUCUUGAGAUCGGGCGUUCGACUCGCCCCCGGUAGAUUUUUUCCUCGAGCAA
CUCUCGGUAGCCAAGUUGGUUUAAGGCGCAAGAGUUUAAUUUAUCACUACGAAAACUUAAGUUCGGCCGUUCGACUCGCCCCCGGGAGAUUUUUUCCUCGAGCAA
